Hit rate of the full screen: of about 48,000 compounds, about 120 (0.25%) were called active. About 4% were inconclusive and are not listed. Calls follow the shape of the dose curve; as a rule, active = well fitted activation curve with a large enough effect; inconclusive = small, poorly fitted or top-dose-only effect, or another doubt; inactive = no such curve, though single readings can be large or run the other way. The list shows a part of the results.
Experiment: Primary qHTS for Identification of Small Molecule Activators of Huntingtin-Antisense Promoter Activity; also: nearly all actives have a fitted effect of over 55% in size
Conditions: HEK293 HTT-AS promoter firefly luciferase reporter (activity 0% = vehicle and -100% = no light), 24 h; series mostly up to 57.5 µM; activity change, positive = activation: at the top concentration
Summary of the method: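 Firefly luciferase readout (Dual-Glo, 10 min RT) after 24 h, 37 °C compound exposure (final up to 57.5 uM) of HEK293 reporter cells cultured 24 h beforehand; PTC124 at 50 uM final as control inhibitor; activity scaled vehicle 0%, zero RLU -100%.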

Activity change, positive = activation, inactive:
CCc1cccc(C)c1Nc1c(-c2cccc(O)c2)nc2sccn12 -22.2%
COc1ccc(CC(=O)Nc2sc3c(c2C(=O)Nc2ccc(C)cc2)CCCCC3)cc1 0.686%
Nc1cccc(S(=O)(=O)N2CCCN(S(=O)(=O)c3ccc4c(c3)OCCO4)CC2)c1 -19.2%
CCOC(=O)C1CCCN(S(=O)(=O)c2ccc3c(c2)N(C)C(=O)CC(=O)N3C)C1 (configuration not stated) -12.4%
O=C(Cn1ncc2c3ccccc3n(Cc3ccc(Cl)cc3)c2c1=O)NC1CCCCCC1 -3.89%
CCc1ccc(CNC(=O)c2cnc3sc(N(CC)CC)nn3c2=O)cc1 -22.9%
COCCCNC(=O)Cn1c(=O)n(-c2ccc(Cl)cc2)c(=O)c2c3c(sc21)CCCCC3 -10.3%
COc1ccc(CCNC(=O)CN2C(=O)COc3ccc(S(=O)(=O)N4CCCCCC4)cc32)cc1OC -18.7%
Cc1ccc(NC(=O)c2ccc(CN3CC(=O)N4CCCCC4C3=O)cc2)cc1C (configuration not stated) -1.99%
CCOc1ccc(-n2c(=O)c3sc4ccccc4c3n(Cc3ccc(F)cc3)c2=O)cc1 -0.0966%
CC[C@@]1(O)C(=O)OCc2c1cc1n(c2=O)Cc2cc3cc(O)ccc3nc2-1 -37.7%
CCc1ccccc1NC(=O)C(=O)NCCc1sc(-c2cccc(C)c2)nc1C -10.4%
CC(C)c1cnc2c(c1SCC(=O)Nc1cccc([N+](=O)[O-])c1)c(=O)n(C)c(=O)n2C -26.3%
COCCCNc1ncnc2c1nnn2C -5.23%
CCn1c(SCC(=O)Nc2ccc(C)c(C)c2)nnc1-c1nonc1NC(C)=O -16.1%
CCCCC(CC)Cn1c(Oc2ccccc2)nc2c1c(=O)n(C)c(=O)n2C (configuration not stated) -24.6%
Cc1ccc(Cl)cc1N1CCN(S(=O)(=O)c2ccc3c(c2)CC(=O)N3C)CC1 -15.3%
CCOC(=O)CNC(=O)Cn1nc(N2CCN(c3ccccc3)CC2)ccc1=O -12.1%
CCN(CC)C(=O)C1CCCN(c2ncnc3c2nc2n3CCCCC2)C1 (configuration not stated) -1.77%
COc1ccc(CCNC(=O)c2cc3c(=O)[nH]c4ccc(C)cc4c3s2)cc1OC -33%
COC(=O)c1ccccc1NC(=O)CCCS(=O)(=O)c1nc(-c2ccccc2OC)cc(C(F)(F)F)n1 -5.87%
COC(=O)c1ccc(NC(=O)c2c(NCc3ccc(OC)c(OC)c3)sc3c2CCCC3)cc1 -22.5%
CCOc1ccccc1CNC(=O)CN1C(=O)C2CCCCN2c2ccc(C(=O)N(C)C)cc21 (configuration not stated) -5.38%
Cc1cc(NC(=O)CSc2ncc(C(=O)Nc3ccccc3)c(=O)n2C)no1 -2.77%
O=C(NCc1ccccn1)c1nn(-c2ccccc2Cl)nc1CO -6.53%
COc1ccccc1CNC(=O)C(Cc1ccccc1)NS(=O)(=O)c1ccc2c(c1)CCN2C(C)=O (configuration not stated) 10.9%
Cc1ccccc1NC(=O)c1ccc(CNS(=O)(=O)c2ccc3c(c2)C(C)(C)C(=O)N3C)cc1 -18.7%
CSc1ncc(C(=O)Nc2cccc(Cl)c2C)c(-c2ccccc2)n1 -10.8%
CCN(CC)C(=O)C1=C(C)Nc2nc3ccccc3n2C1c1ccc(Cl)cc1 (configuration not stated) -2.03%
CC(=O)OC/C=C(C)/C=C/C=C(C)/C=C/C1=C(C)CCCC1(C)C 5.31%
Cc1ccc(Cl)cc1N(C)C(=O)c1cc2ccc3cccnc3c2[nH]1 -8.26%
CCNC(=O)CC1C(=O)N(c2ccc(F)cc2)C(=O)N1Cc1ccc(C)cc1 (configuration not stated) -8.19%
CCCCOc1ccc(C(=O)NCCc2csc3nc(-c4ccccc4F)nn23)cc1 -11.4%
CCOc1ccccc1C(=O)NCC(c1ccc(N(C)C)cc1)N1CCCC1 (configuration not stated) -5.63%
CSc1ccc(CCNC(=O)c2ccc3c(c2)c(C)c(C)n3Cc2ccc(F)cc2)cc1 -22.9%
CCn1c(CN2CCN(C)CC2)nc2cc(NC(=O)c3cc(OC)c(OC)c(OC)c3)ccc21 4.27%
CCOc1ccccc1C1Nc2ccccc2-c2nnc(SCc3ccccc3)nc2O1 (configuration not stated) 25.4%
Cc1c(C(=O)NCc2ccccc2)oc2c1-c1[nH]ncc1CC2 16.5%
COc1ccc(Nc2cc(C(=O)NCCCN(C)C3CCCCC3)c3ccccc3n2)cc1 -22%
CCCN(C(=O)Cn1nc(Cc2ccncc2)c2ccccc2c1=O)c1ccccc1C -41.9%
CCOc1ccc(-c2nnc(SCC(=O)NCCc3ccccc3)nc2-c2ccc(OCC)c(OC)c2)cc1OC -9.59%
COc1ccc(Br)cc1CNC(=O)c1ccc(-n2c(C)cc3c2CCC(C)C3)cc1 (configuration not stated) -0.0298%
COCCCn1c(=N)c(C(=O)NC2CCCC2)cc2c(=O)n3cc(C)ccc3nc21 -4.71%
Cc1cc(O)c(CN2CCN(c3ccc(F)cc3)CC2)c2oc(=O)cc(C)c12 -15.4%
Cc1cccc(C(=O)Nc2nnc(S(=O)(=O)N3c4ccccc4CC3C)s2)c1 (configuration not stated) -68.6%
CCOc1ccc(OCC)c(NC(=O)c2c(C)nn(-c3ccccc3)c2-n2cccc2)c1 -31.7%
COc1ccc(CCCc2nnc(SCC(=O)Nc3ccc(Cl)cc3)o2)cc1 -0.124%
Cc1nn(C)c2c1c(C(F)(F)F)cc(=O)n2CC(=O)NC(C)(C)C -6.74%
Cc1oc2ncnc(N3CCCCC3)c2c1C(=O)Nc1cccc(F)c1 -19.4%
CCc1ccc(CNC(=O)c2sc3ncnc(N(C)C4CCCCC4)c3c2C)cc1 -4.39%
COc1ccc(-c2cc(-c3ccc(F)cc3)nc3c2COc2ccccc2-3)cc1 -8.69%
Cc1ccccc1CN1C(=O)C(O)(CC(=O)c2cccc(Br)c2)c2ccccc21 (configuration not stated) -29.2%
O=C(NC1CCCCC1)/C(=C/c1ccc(Cl)cc1)NC(=O)c1ccccc1 -10%
COc1cccc(CNC(=O)c2ccc(CS(=O)Cc3ccc(Cl)cc3)o2)c1 (configuration not stated) -23%
Cc1ccc(C(=O)CSc2nnc3ccc4ccccc4n23)cc1 6.85%
N#Cc1cc2c(=O)n3ccccc3nc2n(-c2nnc(SCc3ccccc3)s2)c1=O 3.36%
COc1cccc2nc(-c3cccs3)nc(NN3C(=O)C=C(C)C3=O)c12 -74.8%
Cc1ccc(CNC(=O)C2CCN(c3ncnc4c3nc3n4CCCCC3)CC2)cc1 -2.13%
CCOC(=O)C1CCCN(S(=O)(=O)c2cc(-c3cc(C)no3)ccc2C)C1 (configuration not stated) -35.6%
CCC(=O)N1c2ccc(S(=O)(=O)N3CCN(c4ccccc4Cl)CC3)cc2CC1C (configuration not stated) -40.5%
CCn1c(=O)cc(OCC(=O)Nc2ccccc2Cl)c2ccccc21 -36.7%
CCOc1ccc(CCNC(=O)c2nn(-c3ccc(OC)cc3)c(=O)c3c2c2ccccc2n3C)cc1OCC -9.94%
